# Reference: publication PMC4336329 (PLoS ONE, 2015)
# Screen size: about 310,000 compounds; about 14,000 (4.5%) showed an effect of 50% or more. Effects have a minus sign here. Some of the results follow.
# Molecular target: human ether-à-go-go-related gene (hERG) potassium channel (human, UniProt Q12809)
# Experiment: primary screen, population patch clamp on CHO cells stably expressing hERG
# 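Further: peak tail current of the secondary pulse compared with the same well before compound.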
# Sequence of human ether-à-go-go-related gene (hERG) potassium channel (Q12809 whole entry, looked up): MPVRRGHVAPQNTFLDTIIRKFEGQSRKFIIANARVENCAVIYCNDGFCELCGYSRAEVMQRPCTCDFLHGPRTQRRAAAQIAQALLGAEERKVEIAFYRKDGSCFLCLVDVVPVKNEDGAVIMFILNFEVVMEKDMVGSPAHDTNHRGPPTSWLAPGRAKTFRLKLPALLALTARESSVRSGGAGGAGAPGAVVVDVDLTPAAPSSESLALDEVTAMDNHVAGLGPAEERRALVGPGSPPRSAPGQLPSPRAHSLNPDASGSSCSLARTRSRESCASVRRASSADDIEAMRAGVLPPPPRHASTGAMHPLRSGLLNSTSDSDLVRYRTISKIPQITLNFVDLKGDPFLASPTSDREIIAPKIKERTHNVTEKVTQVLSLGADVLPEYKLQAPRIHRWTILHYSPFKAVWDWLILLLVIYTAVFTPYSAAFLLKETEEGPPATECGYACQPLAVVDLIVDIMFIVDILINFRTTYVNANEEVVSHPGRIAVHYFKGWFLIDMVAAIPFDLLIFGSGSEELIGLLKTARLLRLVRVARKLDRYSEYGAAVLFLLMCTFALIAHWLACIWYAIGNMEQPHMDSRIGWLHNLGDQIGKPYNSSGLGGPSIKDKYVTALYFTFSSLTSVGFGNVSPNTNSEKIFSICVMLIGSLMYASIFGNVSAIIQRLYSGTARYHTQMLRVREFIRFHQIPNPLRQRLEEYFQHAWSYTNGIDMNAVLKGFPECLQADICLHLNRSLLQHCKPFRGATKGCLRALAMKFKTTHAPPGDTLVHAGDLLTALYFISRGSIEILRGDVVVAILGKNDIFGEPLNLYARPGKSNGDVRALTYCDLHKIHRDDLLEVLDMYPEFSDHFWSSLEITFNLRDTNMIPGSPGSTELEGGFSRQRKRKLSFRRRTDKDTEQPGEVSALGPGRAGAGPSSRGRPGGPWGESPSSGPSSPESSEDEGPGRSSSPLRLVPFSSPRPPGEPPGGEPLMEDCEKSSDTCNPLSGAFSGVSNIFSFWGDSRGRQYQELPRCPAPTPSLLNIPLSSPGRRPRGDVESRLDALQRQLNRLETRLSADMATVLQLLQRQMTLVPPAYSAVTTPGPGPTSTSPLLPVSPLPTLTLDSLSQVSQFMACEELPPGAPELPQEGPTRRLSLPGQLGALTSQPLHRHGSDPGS
row,Compound,"hERG current change (%, negative = inhibition) at 10uM [%]"
1,COc1cccc(NC(=O)CSc2nnc(-c3cccs3)n2C)c1,-16.6
2,CCOCCCNC(=O)C(c1ccc(C)cc1)N(Cc1ccc2c(c1)OCO2)C(=O)c1cnccn1 (centres unmarked),2.11
3,O=C(c1cc(-c2ccco2)nn1-c1cccc(Cl)c1)N1CCCCC1,-37.4
4,COc1ccccc1CN(C(=O)c1cnccn1)C(C(=O)NC1CCCCC1)c1cc(OC)c(OC)c(OC)c1 (centres unmarked),11.1
5,O=C(O)c1ccc(-c2ccccc2Cl)o1,8.61
6,Cc1cc(C)n(-c2ccc(C(=O)OCC(=O)N(CC(C)C)C3CCS(=O)(=O)C3)cc2)n1 (centres unmarked),-0.661
7,Cc1ccc(C)c(OCCCN2CCc3ccccc3C2)c1.Cl,-49.4
8,CCN(C(=O)COC(=O)CNC(=O)c1ccc(C)c(C)c1)C1CCS(=O)(=O)C1 (centres unmarked),-14
9,CCN(CC)C(=O)Cn1nc(-c2ccc(Cl)cc2)c2ccccc2c1=O,-34.3
10,CCC(NC(=O)c1ccccc1NC(=O)c1ccccc1)C(=O)O (centres unmarked),7.75
11,CC(C)C(=O)NS(=O)(=O)c1ccc(NS(C)(=O)=O)cc1,-4.42
12,CCOc1ncccc1C(=O)OCC(=O)N1CCN(S(=O)(=O)c2ccccc2)CC1,-1.66
13,CC(C)C[C@H](NC(=O)Nc1ccccc1F)C(=O)O,-4.48
14,CC(C)c1ccc(NC(=O)C2C3C=CC4(CN(CCCN5CCOCC5)C(=O)C24)O3)cc1 (centres unmarked),-16
15,COc1cccc(CNC(=O)C(=O)NCC2OCCCN2S(=O)(=O)c2cc(C)ccc2C)c1 (centres unmarked),-8.81
16,CCOc1ccc(CNc2ccc3c(c2)ncn3C(C)(C)C)cc1,-58.6
17,Cc1cc(C(=O)OCC(=O)NCCCN2CCCC2=O)c2ccccc2n1,13.1
18,CC(=O)Nc1cc(ON=C(C)C)cc([N+](=O)[O-])c1,4.63
19,CCCCNC(=O)[C@@H]1CSC2c3ccc(OC)c(OC)c3C(=O)N21 (some centres unmarked),13.5
20,Nc1ccc(CCc2ccc(N)cc2)cc1,16.8
21,Cl.Nc1ccn([C@@H]2O[C@H](CO)[C@@H](O)[C@@H]2O)c(=O)n1,12.4
22,Cc1c(C=O)c2ccccn2c1C(=O)c1ccc(F)cc1,-28.7

row,Compound,"hERG current change (%, negative = inhibition) at 10uM [%]"
1,O=C(Nc1ccc(OC(F)F)cc1)Nc1cccc(C(F)(F)F)c1,6.56
2,Cc1ccc(S(=O)(=O)N(C)C)cc1NC(=O)C(C)N(C)Cc1sccc1C (centres unmarked),-16.1
3,Cc1ccnc(NC(=O)C2CCCN(S(=O)(=O)c3cnc[nH]3)C2)c1 (centres unmarked),7.51
4,Cc1c(NC(=O)OCCNC(=O)COc2ccc(Cl)cc2Cl)sc(=S)n1C,-5.51
5,Cc1cc(C)c(C#N)c(Nc2ccccc2F)n1,11.1
6,COc1ccc(OCc2cccc(C(=O)Nn3cc([N+](=O)[O-])cn3)c2)cc1,-15.6
7,O=C(CN1CCN(Cc2ccc3c(c2)OCO3)CC1)Nc1cc(S(=O)(=O)N2CCCC2)ccc1Cl,-18.8
8,CC1CCC(NC(=O)CNC(=O)c2ccc3ccccc3c2)CC1 (centres unmarked),20.2
9,CCn1cc(C(=O)O)c(=O)c2cc(F)c(N3CCN(S(=O)(=O)c4ccc(Br)cc4)CC3)cc21,-8.19
10,CC(C)Cc1cc(C(=O)N2CCN(C(c3ccccc3)c3ccccc3)CC2)no1,0.0803
11,Cc1ccc(C)c(OCc2nnc(SCC(=O)NCc3ccc4c(c3)OCO4)o2)c1,-21.5
12,O=C(NCc1ccccc1)c1ccc(=O)oc1,0.549
13,NC(=O)CSc1oc(-c2ccco2)nc1S(=O)(=O)c1ccc(Cl)cc1,-28.1
14,Cc1ccc(C(=O)OCC(=O)NCC2COc3ccccc3O2)cc1 (centres unmarked),17
15,CCN1/C(=C2\C(=O)N(c3ccccc3)N=C2C)C=Cc2cc(C)ccc21,-40
16,CC(=O)c1c(CSc2ccccc2)oc2ccc(O)c(CN(C)C)c12.Cl,-70.8
17,Cc1ccc(NC(=O)CN(C)S(=O)(=O)c2cccc3cccnc23)cc1F,-37
18,O=C(Nc1ccccc1C(F)(F)F)c1cc(-c2ccccc2O)on1,3.43
19,COc1ccc(OC)c(/C=N/NC(=O)C(=O)NCc2cccnc2)c1,16.2
20,COc1ccc(C(=O)NCC(=O)OCC(=O)Nc2c(C)n(C)n(-c3ccccc3)c2=O)cc1,6.68
21,CCNC(=O)C/C(C)=N/NC(=O)C(=O)Nc1ccc(CC)cc1,-11.5
22,CC(C)CNC(=O)c1ccccc1NC(=O)Nc1ccccc1,7.14
